PubChem BioAssay AID1362 (SRMLSC, 2008)
The list shows a part of the results. These are further read-outs of the screen, such as a control signal, another cell line or another target. No call is given for them. Compounds called inactive in the main read-out are mostly missing here.

Assay: growth inhibition of WT strain, primary screen, mitochondrial fusion inhibitor project, WT and mutant strains, chemical genetic (AID 1362); also: tested in S. cerevisiae
Details: mitochondrial fusion phenotypic screen, at 10 µM

SMILES | inhibition
Cc1nc(NC(=O)CC(C)C)sc1-c1csc(Nc2ccc(Cl)cc2)n1 | 63.1%
COc1ccc(C)cc1S(=O)(=O)Nc1ccc(F)cc1 | 21.4%
COC(=O)C1C(c2ccccc2)C(C(=O)OCc2ccco2)C1c1ccccc1 (stereo not given) | 64.7%
COc1nc(N2CCCCCC2)nc(N2CCCCCC2)n1 | 27.6%
COc1cc(SC)ccc1C(=O)NCCOc1ccc(Cl)cc1 | 47.6%
Cc1ccc(NC(=S)NCc2ccc3[nH]c4c(c3c2)CCCC4)cc1 | 44.2%
O=C(/C=C/c1ccc(Br)o1)NC(c1ccccc1)c1ccccc1 | 36.7%
C=CCC(C(=O)OC)(C(=O)OC)c1ccc([N+](=O)[O-])cn1 | -15.9%
Cc1cccc(OCc2n[nH]c(=S)n2Cc2ccccc2)c1 | 51.1%
COc1ccccc1-n1c(-c2ccccc2)c[n+]2c1CCc1ccccc1-2 | 47.6%
CC1Oc2ccccc2C=C1/C=N/NC(=O)c1ccccc1O (stereo not given) | 41.4%
O=C(/C=C/c1cccc(Cl)c1)N1CCC(Cc2ccccc2)CC1 | 28.9%
CCOC(=O)c1c(C)[nH]c(C)c1C(=O)COC(=O)/C=C/c1cccc(C(F)(F)F)c1 | -8.44%
CCCCc1ccc(NC(=S)NCc2cccc(OC)c2)cc1 | 57.8%
CC(=Nc1ccc(C)cc1C)c1sc2ccccc2c1O | 47.3%
COc1cccc(CNC(=O)CNC(=S)N(Cc2ccccc2)Cc2ccccc2F)c1 | 4.06%
Cc1ccc(C(c2nnnn2C2CCCCC2)N(C)C2CCCCC2)cc1 (stereo not given) | 67.3%
C/C(=N\NC(=S)NCc1ccccc1)c1ccc(Br)cc1 | 49.4%
CC(C)Cn1c(N)c(C(=O)COC(=O)c2cc(C(F)(F)F)nc3c(C(F)(F)F)cccc23)c(=O)n(C)c1=O | 11.9%
CCOc1ccc(C(C)NC(=S)NC2CCCCC2)cc1 (stereo not given) | 65.1%
c1cn2cc(-c3ccc4c(c3)OCO4)nc2s1 | 67.1%
CCCCCC(=O)Nc1cc(N(C)C)nc2ccccc12 | -0.46%

SMILES | inhibition
O=c1c2ccccc2nc(SCc2ccccc2Cl)n1Cc1ccccc1 | 22.3%
C/C(=N\NC(=S)NCc1ccccc1)c1ccc2ccccc2c1OC(F)F | 15%
CC(C)C(c1nnnn1C1CCCC1)N1c2ccccc2CC1C (stereo not given) | 22.9%
Cc1ccc(Nc2nc(N)nc(CSc3nc4ccccc4s3)n2)cc1 | 12.5%
Cc1ccc2sc(N(CCCN(C)C)C(=O)c3ccc(Br)s3)nc2c1C | 87%
Cc1cccc(NC(=S)NCCSc2ccc(Cl)cc2)c1 | 62.4%
Cc1c(-c2cccs2)[n+](=O)c2c(n1[O-])CCCCC2 | 37.6%
Cc1ccc(-c2cc(-c3ccccc3)c(C#N)c(N)n2)o1 | 0.98%
O=C(Nc1ccccn1)c1ccco1 | -6.61%
O=C(C1=C[C@@H](C2CCCCC2)C[C@@H](OCc2ccc(CO)cc2)O1)N1CCN(Cc2ccc3c(c2)OCO3)CC1 | 27.1%
CCCC(=O)C1=C(O)C(c2cccc(Oc3ccccc3)c2)CCC1=O (stereo not given) | 57.9%
Cc1cc[n+](CC(=O)c2ccc(NC(=O)c3ccccc3)cc2)c2ccccc12 | 20.1%
OC1CCCN(c2c3c(nc4cc(-c5cccc(Cl)c5)nn24)CCC3)C1 (stereo not given) | 65.1%
Cc1ccc(S(=O)(=O)Nc2ccc(C(OC(=O)c3ccccc3[N+](=O)[O-])(C(F)(F)F)C(F)(F)F)cc2)cc1 | 15.9%
COc1ccc(-c2n[nH]c(C(F)(F)F)c2-c2cc3ccccc3o2)c(O)c1 | 86.6%
Cc1ccc(-c2nnc(SCc3ccccc3F)o2)cc1 | 39.3%
COc1ccc(NC(=O)c2csc(Cc3ccc(Cl)cc3)n2)cc1 | 4%
COc1ccc(-c2[nH]c(-c3cc(OC)c4c(c3)OCO4)nc2-c2ccccc2)cc1 | 10.3%
Cc1cc(/C=N/n2cnnc2)c(C)n1-c1ccc(OCc2ccc(Cl)cc2)cc1 | 50.5%
O=C(CCSc1ccc(Cl)cc1)NC12CC3CC(CC(C3)C1)C2 | 28%
CC(=O)COc1cc(C)cc2oc(=O)c(C)c(C)c12 | 37.7%
OC(COc1ccccc1)Cn1c2ccccc2c2ccccc21 (stereo not given) | 51.3%

SMILES | inhibition
CCCOc1ccc(C2C(C(=O)c3ccco3)=C(O)C(=O)N2CCN2CCOCC2)cc1OC (stereo not given) | -3.73%
Cc1ccc(SCCNC(=S)Nc2cc(C)ccc2C)cc1 | 64.2%
O=C1/C(=C/c2ccncc2)CCC/C1=C\c1ccncc1 | 42.1%
COc1ccc(S(=O)(=O)N2CCC[C@H]2C(=O)NC2=NCCS2)cc1 | 1.49%
COc1ccc(NC(=S)NNC(=O)COc2ccc(Cl)cc2Cl)cc1 | -3.89%
N#Cc1c(-c2cccnc2)c2c([nH]c1=S)CCCC2 | -8%
Cc1ccc(Cl)cc1N1CCN(CC(=O)NC2CCCc3ccccc32)CC1 (stereo not given) | 7.4%
CC1CCC(C(C)C)C(OC(=O)Cn2c(-c3ccc(Br)cc3)[n+](C)c3ccccc32)C1 (stereo not given) | 30.6%
COc1ccc(Cn2nc(-c3ccccc3)c(N3CCCCC3)cc2=O)cc1 | 3.25%
Cc1ccsc1/C=N/Nc1nc(=O)[nH]nc1C | 60.5%
CC1CCCc2sc3nc(NCc4ccco4)n4ncnc4c3c21 (stereo not given) | 75.8%
COc1ccc2c(c1)/C(=N/OC(=O)c1cccs1)CCC2 | 23.5%
CNC(=S)N(CCc1c(C)[nH]c2ccc(C)cc12)Cc1cccs1 | 36.2%
Cc1ccc2cc(CN(Cc3cccs3)C(=O)c3ccco3)c3nnnn3c2c1C | 43.6%
Cc1nc(N)nc(N)c1/C=C/C(C)(C)c1ccc(Cl)cc1 | 39.4%
COc1cccc(/C=N/n2c(C)nc3ccccc32)c1OC | 48.3%
CCC(=O)OCCNc1cc(Sc2nc3ccccc3s2)c2nonc2c1[N+](=O)[O-] | 91.8%
C/C(N)=C(/C#N)C(=O)CSc1nnnn1-c1ccccc1 | -4.22%
N/C(=N\OC(=O)N1c2ccccc2Sc2ccccc21)c1ccccc1 | 33.3%
CC(=O)C(Sc1ncnc2sc3c(c12)CCCC3)C(C)=O | 72.5%
Cc1cccc(C)c1NC(=S)NC1CCCCC1 | 30%
CCCCCC(C)NC(=O)c1ccoc1C (stereo not given) | 74.9%

SMILES | inhibition
COCCNC(=S)N(CCc1c(C)[nH]c2ccc(Cl)cc12)Cc1cccs1 | 19.8%
CCOC(=O)CC(=O)CSc1nc(C)nc2c1oc1ccccc12 | 1.34%
OC(CNCCC(c1ccccc1)c1ccccc1)COc1ccccc1 (stereo not given) | 56.5%
CC(=O)c1ccc(NC(=O)Nc2cccc(Cl)c2)cc1 | 43.7%
CC(C)(C)C1CCc2sc(-c3nnc(CCl)o3)cc2C1 (stereo not given) | 27%
Cc1ccc(N2C(=N)/C(=C3/Nc4ccccc4S3)C(c3ccccc3)C2=O)cc1 (stereo not given) | 67.5%
Cc1ccc(C)c(SCC(=O)Nc2nnc(-c3ccccc3)o2)c1 | 64.4%
C/C(=C\C(=S)Nc1ccccc1)Nc1ccc2ccccc2c1 | 16.5%
Cc1ccc(C2CN(C)C3(C(=O)Nc4ccccc43)C23COc2ccccc2C3=O)cc1 (stereo not given) | 21.8%
Cc1c(C)n(Cc2ccccc2)c2ccc(C(=O)OCCCN(C)C)cc12 | 85.5%
Cc1c(Cl)cccc1NC(=S)NCCC(c1ccccc1)c1ccccc1 | 55.7%
CC1CN(c2cc(-c3ccccc3)c3ccccc3n2)CC(C)O1 (stereo not given) | 33.8%
O=C(NC(Cc1c[nH]c2ccccc12)C(=O)Nc1ccc(OC(F)(F)F)cc1)c1cccs1 (stereo not given) | 12.8%
CCC1C/C(=C\c2cccnc2)C(=O)/C(=C/c2cccnc2)C1 (stereo not given) | 48.9%
CCN1CCN(CCNC(=O)c2ccc3c(c2)N(Cc2ccc(F)cc2)C(=O)/C(=C/c2ccccc2)S3)CC1 | 57.6%
COc1cc2c(cc1NC(=S)Nc1cccc3ccccc13)oc1ccccc12 | 44.5%
Cc1ccc(OCCCCNC2CCCC(C)C2C)c(C)c1 (stereo not given) | 59.8%
COc1ccccc1CNc1nc2nc(C)c(C)c(=O)n2[nH]1 | 5.95%
CC(C)(C)c1ccc(NC(=O)COC(=O)c2ccc([N+](=O)[O-])s2)cc1 | 89.3%
CC(C)N1C2OC(C3OC4C(O3)N(C(C)C)S(=O)(=O)N4C(C)C)OC2N(C(C)C)S1(=O)=O (stereo not given) | 39.9%
COc1ccccc1Cn1c(/C=C/c2ccccc2)nc2ccccc21 | 22.7%
Cc1ccc(Cn2ncc3c(N4CCN(Cc5ccc(Cl)cc5)CC4)ncnc32)cc1 | 42.4%

SMILES | inhibition
CC(C)c1ccc(/C=C/C(=O)NCCCc2ccccc2)cc1 | 41.8%
C[C@H]1COC2=C1C(=O)C(=O)c1c2ccc2c1CCCC2(C)C | 60.3%
O=[N+]([O-])c1cc(C(F)(F)F)ccc1NCCc1c[nH]c2ccccc12 | 9.5%
Cc1ccc(C)c(C(=O)COC(=O)c2cc([N+](=O)[O-])ccc2NCCO)c1 | 1.94%
O=c1c2c(nc(NCCO)n1CC1CCCCC1)-c1ccccc1CC21CCCC1 | 31.2%
O=C1C=C(Nc2ccccc2)c2ccccc2C1=O | 71.9%
Clc1cccc(Cl)c1Cn1cnc2c(N3CCCCCC3)ncnc21 | 43.4%
CCCCC1CCC(c2nc(-c3cccnc3)no2)CC1 (stereo not given) | 53.6%
O=C(CSc1nc2ccccc2[nH]1)Nc1nc(-c2cccc(Br)c2)cs1 | 64%
O=S(=O)(c1ccccc1)N1N=C(c2ccccc2)CC1c1ccccc1 (stereo not given) | 58.6%
CC1CCc2sc3nc(NCc4ccco4)n4ncnc4c3c2C1 (stereo not given) | 79.5%
O=C(N=Nc1c(O)[nH]c2ccc(Br)cc12)c1ccccc1-n1cccc1 | 43%
CC1CC2(CCCC2)N(C(=O)c2ccccc2)Cc2ccccc21 (stereo not given) | 17.6%
O=C(O)c1cccc(N/N=C/C2=C(Cl)c3cc(Cl)ccc3SC2)c1 | 93.4%
On1c2c(c3c4nonc4ccc31)CCCC2 | 57.1%
CCCCNC(=S)Nc1ccccc1Cc1ccccc1 | 57.7%
Cc1onc(-c2ccccc2Cl)c1C(=O)Nc1nnc(-c2cccc([N+](=O)[O-])c2)s1 | 14.8%
C=CCOC(=O)C1=C[C@@H](c2coc3ccccc3c2=O)C[C@@H](OCc2ccc(CO)cc2)O1 | 33.3%
CCCCCCC1CCC(c2nc(-c3ccncc3)no2)CC1 (stereo not given) | 59%
Cc1ccc(NC(=S)NCc2ccc3c(c2)OCO3)cc1C | 53.9%
Fc1ccc(Sc2ccccc2CNC2=NCCN2)cc1 | 60.3%
COc1ccc(/C=C2\SC(N3CCc4ccccc4C3)=NC2=O)cc1 | 13.1%
